Measured values reported in article PMC4336329 (PLoS ONE, 2015).
Hit rate of the full screen: of about 310,000 compounds, about 14,000 (4.5%) showed an effect of 50% or more. Effects have a minus sign here. The list shows a part of the results. Where a SMILES comes first, the peptide text is derived from it. The star is where a group is joined. Boc = CC(C)(C)OC(=O)*; OBn = c1ccc(CO*)cc1

Biological target: human ether-à-go-go-related gene (hERG) potassium channel (human, UniProt Q12809)
Test: primary screen, population patch clamp on CHO cells stably expressing hERG
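Note: peak tail current of the secondary pulse compared with the same well before compound.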

human ether-à-go-go-related gene (hERG) potassium channel, sequence (Q12809 whole entry, looked up): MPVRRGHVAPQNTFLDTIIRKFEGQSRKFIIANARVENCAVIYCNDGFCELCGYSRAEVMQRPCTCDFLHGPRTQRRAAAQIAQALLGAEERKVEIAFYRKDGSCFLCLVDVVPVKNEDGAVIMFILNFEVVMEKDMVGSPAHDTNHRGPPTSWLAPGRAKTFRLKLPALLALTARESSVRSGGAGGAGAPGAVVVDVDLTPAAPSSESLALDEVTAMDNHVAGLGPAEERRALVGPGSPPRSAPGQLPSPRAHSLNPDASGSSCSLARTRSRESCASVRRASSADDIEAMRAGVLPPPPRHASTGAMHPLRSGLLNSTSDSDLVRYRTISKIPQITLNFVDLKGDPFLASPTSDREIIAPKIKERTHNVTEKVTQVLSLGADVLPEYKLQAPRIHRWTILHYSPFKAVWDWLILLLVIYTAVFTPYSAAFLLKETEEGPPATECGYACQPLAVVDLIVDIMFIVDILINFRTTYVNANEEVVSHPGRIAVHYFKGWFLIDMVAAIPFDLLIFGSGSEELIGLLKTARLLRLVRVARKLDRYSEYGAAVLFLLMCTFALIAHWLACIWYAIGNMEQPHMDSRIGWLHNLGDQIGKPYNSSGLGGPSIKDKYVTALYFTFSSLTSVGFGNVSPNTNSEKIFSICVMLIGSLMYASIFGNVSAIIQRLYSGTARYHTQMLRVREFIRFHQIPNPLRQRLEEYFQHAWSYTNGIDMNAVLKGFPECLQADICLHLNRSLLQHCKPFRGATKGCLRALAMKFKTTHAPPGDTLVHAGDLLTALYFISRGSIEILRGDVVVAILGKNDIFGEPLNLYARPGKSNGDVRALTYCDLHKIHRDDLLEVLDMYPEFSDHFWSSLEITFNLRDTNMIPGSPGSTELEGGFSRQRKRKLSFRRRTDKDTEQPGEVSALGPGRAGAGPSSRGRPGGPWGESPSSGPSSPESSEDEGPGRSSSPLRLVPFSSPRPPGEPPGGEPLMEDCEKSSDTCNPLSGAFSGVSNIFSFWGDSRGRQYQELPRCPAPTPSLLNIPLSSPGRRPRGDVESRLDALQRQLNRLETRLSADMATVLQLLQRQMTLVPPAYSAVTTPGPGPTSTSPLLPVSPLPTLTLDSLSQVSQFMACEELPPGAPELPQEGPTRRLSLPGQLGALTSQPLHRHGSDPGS

Structure (SMILES)	hERG current change (%, negative = inhibition) at 10uM [%]
Cn1cccc1/C=C(\C#N)c1ccccc1	-11.4
Cc1occc1C(=O)NCc1ccc(C(=O)O)o1	-0.0815
Cc1cc(C)cc(NS(=O)(=O)c2ccc3[nH]c(=O)ccc3c2)c1	7.42
O=C1NCC(O)=C1C=NC12CC3CC(CC(C3)C1)C2 [4246017]	12.6
Cc1ccc(Nc2c(F)c(F)c(F)c(F)c2C(=O)O)cc1	13.8
O=C(COc1nncc2ccccc12)NCCC1=CCCCC1	0.595
COc1ccc(C(C#N)c2ccc(Cl)nn2)cc1 (centres unmarked)	-2.07
O=C(Nc1ccccc1C(F)(F)F)Nc1cccc2ccccc12	1.48
CCO.Cc1ccc(NC(=O)c2sc3nc(N)c(C#N)cc3c2N)cc1	-14.1
COC(=O)N/N=C(\C)c1cccc(C(F)(F)F)c1	-13.2
CCO[C@@H]1OC(C(N)=O)=C[C@H](C(C)(C)C)[C@H]1CCCO	18.9
COc1cc(C(=O)NNC(=O)C2CCC2)cc(OC)c1OC	-7.32
CCOC(=O)c1cn(CC(=O)Nc2ccccc2C(=O)OCC)nn1	-9.76
Cc1cc(N2CCN(C(=O)c3ccco3)CC2)n2ncnc2n1	-30.3
Br.COC(=O)C1=CCCN(C)C1	-4.13
Cc1ccc(-c2c(C)sc(NC(=O)C3C4CCC(O4)C3C(=O)O)c2C(=O)OC(C)C)cc1 (centres unmarked)	2.21
O=C(CSc1nnc2ccccn12)Nc1ncc(Cl)cc1Cl	0.122
CC(=O)Nc1c(-c2ccccc2)nc2ccc(Cl)cn12	5.29
CCc1ccc2oc(C(=O)Nc3nonc3CC)c(C)c2c1	22.5
O=C(NCCc1ccccc1)C1(S(=O)(=O)c2ccc(Cl)cc2)CC1	6.29
O=c1cc(N2CCN(c3ccc(F)cc3)CC2)[nH]c(=O)n1C1CCCCC1	-4.71
CC(COc1cccc2ccccc12)CN1CCN(C)CC1 (centres unmarked)	-30.1
c1ccc(-c2nnc(NC3=NCCC3)o2)cc1	31.3

Structure (SMILES)	hERG current change (%, negative = inhibition) at 10uM [%]
CCNC(=S)N(CCN(CC)CC)Cc1cc2cc3c(cc2[nH]c1=O)OCO3	0.779
COc1ccc2oc(C(=O)OCC(=O)N3CCCCC3)c(C)c2c1	8.71
CCN(CCn1cccn1)C(=O)CC1C(=O)NCCN1Cc1ccc(OC)c(OC)c1 (centres unmarked)	4.47
Cc1ccc(C(=O)n2nc(-c3cccnc3)nc2N)cc1	12.5
CCN(C(=O)COC(=O)Cn1cnc2c1c(=O)n(C)c(=O)n2C)C1CCS(=O)(=O)C1 (centres unmarked)	7.26
COc1ccc(CNC(=O)/C=C/c2ccco2)cc1OC	1.27
CC(C)CNC(=O)COc1ccccc1[N+](=O)[O-]	9.7
CC(=O)NC1C(=O)N=C(SCC(=O)Nc2cccc(Cl)c2)NC1=O (centres unmarked)	13
CC(C)C(=O)Nc1nnc(CCN(CCc2nnc(NC(=O)C(C)C)s2)[N+](=O)[O-])s1	5.19
CC(C)(C)OC(=O)N1CCN(C(=O)OCC2c3ccccc3-c3ccccc32)CC1C(=O)O (centres unmarked)	17.7
O=C(COc1ccc(Br)cc1)Nc1ccc(Cc2ccncc2)cc1	-35.6
O=C(Nc1ccc2c(c1)oc1ccccc12)N1CCOCC1	-9.91
CC(C)CCN1C(=O)c2ccc(C(=O)Nc3ccccn3)cc2C1=O	9.58
Cc1ccc(C(=O)N/N=C/c2c[nH]c3ccccc23)o1	12.5
CN1CCN(CCNC(=O)Nc2ccc([N+](=O)[O-])cc2)CC1	-25.7
COc1ccccc1C(=O)N(NC(=O)Oc1ccccc1)C(C)(C)C	16.5
CN(C)C(=O)Oc1ccc2ccccc2c1Cl	-8.69
Cn1c(-c2ccc3ccccc3n2)nc2cnccc21	-6
CC(C)c1cc(C(C)C)c(S(=O)(=O)NNC(=O)c2ccncc2)c(C(C)C)c1	-24.9
Cc1ccc(C2=CC(=O)C[C@H](c3ccc(F)cc3)C2)cc1	19.4
COCCCn1nnnc1SCC(=O)Nc1ccc2c(c1)OCCO2	-2.04
CC1=C(C(=O)Nc2cccc(C(=O)NC3CCCC(C)C3C)c2)SCCO1 (centres unmarked)	-20.9
Cc1cccc(-n2ncc3c(N(CCO)CCO)ncnc32)c1	8.3

Structure (SMILES)	hERG current change (%, negative = inhibition) at 10uM [%]
COc1ccc(OC)c(C(=O)NC(CC(N)=O)c2ccc(N3CCC(N4CCCCC4)CC3)c([N+](=O)[O-])c2)c1 (centres unmarked)	8.2
COc1ccc(N=C2NC(=O)/C(=C/C=C/c3ccccc3)S2)cc1	14
O=C(c1cc(Br)ccc1Cl)N1CCN(c2ccc(N3CCOCC3)nn2)CC1	-17.4
Cc1ccc(OCCn2cnc(Cl)c2Cl)cc1	-15.2
C/C(=N/NC(=O)c1ccncc1)c1ccc(NC(=O)c2ccc(Cl)cc2Cl)cc1	20.5
N/C(=N\OC(=O)COc1ccccc1)c1ccncc1	-3.13
O=C(NNC(=O)C1CC1c1ccccc1)c1cccc([N+](=O)[O-])c1 (centres unmarked)	-4.13
COC(=O)c1c(C)oc(C)c1S(=O)(=O)NCC1CC1	4.91
CCOC(=O)c1c(C)[nH]c(C(=O)COC(=O)/C=C/c2cccc(OC)c2OC)c1C	-1.93
CCCN(CCC)S(=O)(=O)c1ccc(C)cc1	6.02
COc1cc(/C=C2\SC(c3ccc(C)cc3)=NC2=O)cc(OC)c1O	8.85
Cc1ccc(NC(=O)CSc2nnc(CNC(=O)c3cccs3)o2)c(C)c1	6.79
O=C(COC(=O)COc1ccc2ccccc2c1)NC1CCCc2ccccc21 (centres unmarked)	6.02
O=C1NC(c2ccccc2)=CC(c2ccccc2)N1 (centres unmarked)	20.8
On1c(-c2ccc(Cl)cc2)nc2ccccc21	13.9
Cc1ccc(N=C2S/C(=C\c3cn(CC(=O)O)c4ccccc34)C(=O)N2C)cc1	17.5
O=C(CN(Cc1ccccc1)C(=O)CCC(=O)Nc1nccs1)NCC1CCCO1 (centres unmarked)	13
Cc1cc(C(=O)Cn2nnc(-c3ccc(Cl)cc3)n2)c(C)n1CC1CCCO1 (centres unmarked)	-6.08
CN1c2ccc(C=O)c3c(C=O)ccc(c23)N(C)C1(C)C	-34.5
CCOC(=O)C1CCCN(C(=O)c2cc(Nc3ccc(OC)cc3)nc3ccccc23)C1 (centres unmarked)	-15
Cc1cc(C)cc(N(CC(=O)NC2CCCC2)C(=O)CCC(=O)Nc2cc(C)ccn2)c1	12.2
CCCn1c(C2CCCN2c2nc(-c3cccc(Br)c3)cs2)nc2cc(Cl)c(Cl)cc21 (centres unmarked)	15.9
Cc1nnc(C)n1N	12.1

Structure (SMILES)	hERG current change (%, negative = inhibition) at 10uM [%]
Cc1nn(-c2cccc(C(=O)O)c2)c(C)c1[N+](=O)[O-]	15.6
CCOC(=O)c1ccc2c(c1)nc(COc1ccc(OC)cc1)n2CC	-8.73
Cc1occc1-c1nc(-c2ccccn2)no1	2.31
CCNC(=O)Nc1cc(OC)c(OC)cc1C(=O)O	4.84
COc1ccc2c(CC(=O)NCc3ccc4c(c3)OCO4)coc2c1	0.281
CN1CCN(C(=O)/C(=C/c2ccccc2Cl)NC(=O)c2ccccc2)CC1	-10.8
O=[n+]1cc(-c2ccc(Br)cc2)n([O-])c2c1CCC2	1.93
CCOC(O)[C@H]1N[C@@H](c2ccc(Cl)cc2)[C@@H]([N+](=O)[O-])[C@@H]1c1ccccc1 (some centres unmarked)	-37
O=C(Nc1cccc(S(=O)(=O)N2CCOCC2)c1)c1ccc2c(=O)n3c(nc2c1)CCCCC3	-73.3
Cc1nnc(SCC(=O)NC(=O)NC2CCCC2)n1N	14.9
CC(NC(=O)OC(C)(C)C)C(=O)NC(CCC(=O)OCc1ccccc1)C(N)=O (stereo not drawn) (Boc-Ala-Glu(OBn)-NH2; configuration not given here)	11.7
NC(=O)CC(NC(=O)c1ccccc1)c1ccc(N2CCN(c3ccc(F)cc3)CC2)c([N+](=O)[O-])c1 (centres unmarked)	16.2
Cc1ccc(S(=O)(=O)NN2C(=O)/C(=C\c3ccc(Cl)cc3)SC2=S)cc1	18.8
O=C(O)C1CC=CCC1C(=O)NNc1ccccc1 (centres unmarked)	19.7
CN(CC(=O)Nc1c(Cl)cccc1Cl)C(=O)c1cccc(S(=O)(=O)NCc2ccccc2)c1	-23.2
Cc1cc(C)cc(NC(=O)C(NCCN2CCOCC2)c2ccccc2)c1.O=C(O)C(=O)O (centres unmarked)	-7.91
CCCCN(C)CCNC(=O)c1nn(-c2ccc(OC)cc2)c(=O)c2c1c1ccccc1n2C	-26.3
CCN(Cc1ccccc1)C(=O)C1CCN(Cc2ccc(SC)cc2)CC1.O=C(O)C(=O)O	-71.8
Cc1noc2ncnc(Sc3c(Cl)cccc3Cl)c12	14.6
COc1ccc(CC(=O)OCC(=O)Nc2ccc(C(=O)Nc3ccc(OC)cc3)cc2)cc1	13.1
